Measured values: the supplement of paper PMC3334620
The full ranking holds about 33,000 sequences; the median of “E-score (-0.5 to 0.5)” is about -0.053, and the highest 2% start at about 0.37. The list shows a part of the results.

The sequences below were run against Hap1 (UniProt P0CE41) (assay: PBM E-score (8-mer binding enrichment) (E-score (-0.5 to 0.5)); higher = stronger / more preferred TF binding; most listed sequences are background and not binding sites). Conditions: protein concentration: 200 nM; construct: GST-DNA-binding domain.
Sequence of UniProt P0CE41 (P0CE41 whole entry, the tested form may be a part): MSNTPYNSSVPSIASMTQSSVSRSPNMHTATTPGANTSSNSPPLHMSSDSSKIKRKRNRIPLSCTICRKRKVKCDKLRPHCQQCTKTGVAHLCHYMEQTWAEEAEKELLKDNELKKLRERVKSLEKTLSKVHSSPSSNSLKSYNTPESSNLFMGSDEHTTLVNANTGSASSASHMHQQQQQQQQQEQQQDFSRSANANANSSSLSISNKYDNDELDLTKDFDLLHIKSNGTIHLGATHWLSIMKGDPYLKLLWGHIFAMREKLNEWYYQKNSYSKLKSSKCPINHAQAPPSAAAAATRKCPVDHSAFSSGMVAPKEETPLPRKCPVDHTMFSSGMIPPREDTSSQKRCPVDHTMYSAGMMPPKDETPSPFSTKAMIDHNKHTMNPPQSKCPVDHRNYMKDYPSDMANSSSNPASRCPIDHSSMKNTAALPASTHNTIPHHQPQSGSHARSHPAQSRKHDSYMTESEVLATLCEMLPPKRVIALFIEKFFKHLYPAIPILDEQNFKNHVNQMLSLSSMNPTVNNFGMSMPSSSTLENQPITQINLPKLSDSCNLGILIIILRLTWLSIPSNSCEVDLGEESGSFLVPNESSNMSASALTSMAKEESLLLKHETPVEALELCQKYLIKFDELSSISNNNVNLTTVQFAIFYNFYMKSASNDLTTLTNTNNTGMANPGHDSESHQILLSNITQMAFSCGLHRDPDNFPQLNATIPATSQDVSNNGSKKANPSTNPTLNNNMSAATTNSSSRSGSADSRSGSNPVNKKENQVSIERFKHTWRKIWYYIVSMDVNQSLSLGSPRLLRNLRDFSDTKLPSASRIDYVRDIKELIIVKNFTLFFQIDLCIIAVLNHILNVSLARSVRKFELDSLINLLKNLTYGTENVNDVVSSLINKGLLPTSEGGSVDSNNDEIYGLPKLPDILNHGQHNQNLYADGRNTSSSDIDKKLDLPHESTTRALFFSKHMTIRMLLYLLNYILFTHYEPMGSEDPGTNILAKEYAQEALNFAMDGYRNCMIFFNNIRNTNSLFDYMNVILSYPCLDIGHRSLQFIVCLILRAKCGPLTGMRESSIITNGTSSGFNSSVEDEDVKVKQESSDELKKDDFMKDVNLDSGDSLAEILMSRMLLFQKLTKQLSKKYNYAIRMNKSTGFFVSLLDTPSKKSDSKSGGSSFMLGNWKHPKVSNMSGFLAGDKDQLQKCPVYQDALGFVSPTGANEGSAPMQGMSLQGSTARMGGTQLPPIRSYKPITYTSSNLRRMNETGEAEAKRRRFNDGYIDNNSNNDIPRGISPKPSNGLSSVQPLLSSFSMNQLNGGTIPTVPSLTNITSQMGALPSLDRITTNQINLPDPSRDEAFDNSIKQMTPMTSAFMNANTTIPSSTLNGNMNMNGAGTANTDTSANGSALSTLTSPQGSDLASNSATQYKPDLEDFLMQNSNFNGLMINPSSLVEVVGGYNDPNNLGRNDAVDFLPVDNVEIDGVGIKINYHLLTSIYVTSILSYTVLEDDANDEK
Procedure, shortened: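 GST-tagged yeast TFs (full-length or DNA-binding domain) were made by PURExpress in vitro transcription/translation and applied at about 100-200 nM to universal all-10-mer Agilent arrays. The arrays were made double-stranded by primer extension, on fresh or once-stripped slides. Bound protein was detected with fluorescent anti-GST, and scans were normalised with masliner. Each ungapped eight-base word, pooled with its reverse complement, received an E-score (modified Wilcoxon-Mann-Whitney statistic) from the Universal PBM Analysis Suite.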

Sequence	PBM E-score
GGCTCGTA	-0.0705
CAGAGTGC	-0.22
AGCCTCTA	-0.234
CCCACCCC	0.183
ACATCTTG	-0.206
AATAAACG	-4e-05
AGATATTC	-0.207
CATGTGTA	-0.0897
AGGCCAAG	-0.214
AGGAGCAC	-0.163
AACAGGGA	-0.203
CGAATGCA	-0.0874
AAGAGGGG	-0.0367
CCGCGTCG	0.211
GCTTTAAA	0.0762
GATAATAC	0.0612
ATACATAT	0.00563
AATGTAAG	-0.192
ACGCAGGA	-0.16
ACCCAATA	-0.0996
AGCGCTGC	-0.164
CAACACAA	-0.161
ATAACATG	-0.0555
GCGCGGCC	0.155
CATGCGCA	-0.0725

Sequence	PBM E-score
ACGCCCTG	-0.0395
TGGGGTAA	0.148
AATGGGCT	-0.236
CCGACGCA	0.122
AACCGGAA	0.337
ACGAAATC	0.0404
GAACATGC	-0.18
AGCGATCG	0.0297
CAATCGCC	0.0682
ATCAGCAC	-0.213
AATTCAAT	0.0811
AGTCGAAC	-0.052
CGCAAATA	0.23
CCCTCACC	-0.0645
GCCGCCAA	-0.0304
GGGCGTCA	-0.0113
GATTTCAC	0.0494
CGACTACC	-0.0518
ATGCGACC	0.207
GCATCCAA	-0.115
CTTGTTAC	-0.0448
ATGGTTAA	-0.0945
AAGGCCTT	-0.332
CCGTCGCA	0.179
CAATACGG	0.0664

Sequence	PBM E-score
CATTCGGG	0.3
AGCAAGTG	-0.295
ACTAGCTC	-0.0932
GCGCGTCA	-0.0915
CCGTCTCA	-0.0767
AATTTATA	-0.0721
CATGAAGG	-0.234
ATTGGAGG	-0.084
GTAGGGGA	-0.143
ATCACCTC	-0.129
AGCGTCCC	0.0151
ATGCCAAT	-0.257
GAATAAAC	-0.001
ACGCGACT	-0.0752
GCGTGGTA	0.109
ACGAGGAA	-0.0333
ACTCCTGC	0.113
AAGCAGAG	-0.354
ATCTCGGG	0.356
GCAGACCA	0.0072
ACGCGACA	-0.0338
GCACTTTA	-0.0226
CATCTTAG	-0.059
ATCGATAG	-0.0823
GTTTACCA	-0.0225

Sequence	PBM E-score
CGGCTCAC	0.0997
CCGGGGAA	0.372
CGCGAGCC	0.214
AATGGAAA	0.00111
GCAGAGAA	-0.135
GCCGGTCC	0.323
ACTGGTCA	-0.106
GATTATAA	0.173
AAAGGATA	-0.0168
AGCGGTAC	0.0325
ATTGAGAG	-0.0536
AAGGGCAT	-0.353
AGTCCGAT	0.432
AATCACAA	-0.0867
GTCTCAAC	-0.178
CCGAAGCC	0.264
CAGTGCGA	-0.227
CCGGACTC	0.361
AGCTGATG	-0.0646
CAGTACAG	-0.116
AATCCCCT	-0.138
AATTAGTC	0.0725
GCCCAACA	-0.211
CAGGCTTC	0.0635
ATCCTAGA	0.0243

Sequence	PBM E-score
AGGGTACG	-0.0528
ACAGTAGA	-0.213
CAGTAGGG	-0.206
GGCGCGGA	0.328
ATAGTCGG	0.214
ACGTCCCC	0.00169
AGTGTGAC	-0.373
TTCTCCAA	-0.245
GCAAGGCC	0.117
CGCTAACG	0.171
ATATCCAA	-0.0161
CCTAAACA	-0.158
CCGAGCGC	0.384
AATTGTTC	-0.0306
TAGTCTAA	-0.0657
CTTGTCAC	-0.123
CGTGGGTA	0.00442
CTGAGTCC	-0.0126
AGATGTGG	-0.238
AGCATGAC	-0.213
AATCGATC	-0.0397
GCAAGTAC	-0.195
GAAAGGGC	-0.0881
AAGACAAG	-0.108
GGGAGACC	0.0532

Sequence	PBM E-score
GTGATGTA	-0.043
AACCCGCC	0.212
CTCACGCC	-0.0132
GTACAGAA	-0.0691
CACACTGA	-0.299
ATATAGGG	-0.104
GTCGCCCA	-0.211
CTACTACC	0.068
TGCCTTAA	-0.15
ACACGTAA	-0.198
GGTTAAAA	0.109
TACCCCCA	-0.0886
CGTGCTGA	-0.256
AGCCTTAC	-0.142
AACCTAGG	-0.0459
GCCGGGAA	0.326
AAACGACG	-0.136
CAGCATCC	0.0424
CCGAGGGC	0.333
GATCCTGA	0.0787
CCGACGAG	0.259
CGGGGCAG	0.257
CTGGAGGA	-0.25
CTTGAATC	-0.128
CAAGATCC	0.059

Sequence	PBM E-score
TCATAGCA	-0.268
CACCCAAG	-0.111
GAGAACTA	-0.0962
GCCAACAA	-0.197
GGAGGGGA	0.0268
CCAGCAAG	-0.153
CCTATGCC	-0.186
CACGGCCA	0.0826
TGCGGTAA	0.042
GAGGTAGC	-0.0529
AATAGTGT	0.201
ACAAAACG	0.0381
CGGTCACA	0.161
ACCGGTCC	0.329
AGCAGACC	0.0307
AAGTCGTG	-0.209
GACTAACA	0.0163
CCTCTGTA	-0.255
GGATCTCA	-0.055
CGTGATAC	-0.0629
AATGCGGC	0.218
GTATGGGA	-0.187
ATTTGACG	-0.00555
GCAACTCC	0.113
CCTCCCTC	0.0165

Sequence	PBM E-score
ATCAGATG	-0.243
GAACCCAA	-0.257
ACCTGCAC	-0.0824
CATATCGC	0.179
GGGGGAAC	0.0171
GAAATTGC	-0.0453
GGTTACAC	-0.0561
AAACCACG	-0.0117
CCCGAGAC	0.32
CGCTAAGC	0.00998
AGTCATTA	-0.422
AGGACTGA	-0.193
ACAGAGAC	-0.0779
ACACTCGC	0.116
CGGTGGTA	0.24
GTAGGTCA	-0.0302
GAGTTGGA	-0.00873
GACATCCA	-0.175
GCCAATCA	-0.232
GAGGCAGC	-0.0968
CAATGTAG	-0.0808
GACGTAGA	-0.165
AGGTCACC	-0.122
AGCCAGAG	-0.199
AGATCATG	-0.226

Sequence	PBM E-score
ACGCCGGG	0.306
ACCCAGCT	-0.113
CCTGTCTC	-0.112
AAGTGCAC	-0.0983
AATAATAC	-0.0134
ACACGCTA	0.0221
GCGACTTA	-0.0228
AGTCATGA	-0.165
CTCCGTAC	0.196
CGATAAAG	0.339
GTGAGTAA	-0.188
ATTAAATC	0.21
GTATAATA	0.0596
ATTGATTA	0.0695
ACGTCGCC	-0.0473
ACCGGGGG	0.379
GTCCTAAA	0.0632
TACAGGCA	-0.0782
GTGTACAC	-0.215
AGGGCATA	-0.102
CGTGTTAC	-0.142
AACGGGAT	0.321
CTATAAAC	0.122
CTACGCCC	0.0263
TAGTTCGA	-0.21

Sequence	PBM E-score
CCACCAGG	-0.128
AGTAGGGC	0.00312
ACCCTTTG	-0.0833
CGTTTTAC	-0.065
ATTGTGCC	-0.0487
AGTGGTAG	-0.272
CAAAGTCG	-0.114
GCGCGAAC	0.224
ATGGTAGG	-0.267
CAGTACGA	-0.0342
CTAGATTA	-0.148
ACCGAAAC	0.323
TCCAACGA	-0.239
CTTAGGGC	0.0704
ATACTAGA	-0.154
TTCCAAAA	-0.133
AACGACTG	-0.27
CGCGGGTA	0.142
AGCTGCAT	-0.254
CACCTACG	-0.0607
AAATTTCC	0.232
AGTAGGAT	-0.135
ATGAGTTA	-0.207
CAGAATTA	0.0222
CAGTGGCA	-0.241

Sequence	PBM E-score
AGGGATGA	-0.133
ACAAATGT	-0.00592
CAGCAAGG	-0.286
GAGGAAGA	-0.094
GTTCCATA	-0.0357
CCGCGCTA	0.11
ATCCTCTG	-0.187
AATTGCAT	-0.089
CTAGATAA	-0.192
CGAAGTAA	0.154
GCGATACA	0.0344
ATGGCCCC	0.0323
ATATCAAT	-0.0951
ACATCTGA	-0.226
AACACTAG	-0.103
ACGTGTAT	-0.151
ATACGGCA	0.0304
CGAGGCCC	0.214
GGACAACC	0.0161
ATCCATGC	-0.0967
CCAACGTA	-0.351
CCCTGAGA	-0.313
ACTGTGCC	-0.219
AAGATCCG	0.273
GGTTTAGA	-0.086

Sequence	PBM E-score
CTAACGAC	-0.254
CGTAAGAC	-0.0259
AAAGCCCT	-0.0264
GCGTCCCA	-0.0794
TAGTATAA	0.0717
ATCTGGGG	-0.257
TGAAACAA	-0.0836
TACGCAGA	0.0345
AACCTCCG	0.365
ATTCACTA	-0.0607
GAGCGGAC	0.217
TATATCGA	0.17
CTCGCGTA	-0.0418
GATGTGGC	-0.0304
GTGTACCA	-0.309
CCAGGACC	-0.0476
CGAAAGCA	0.155
GACTTCTC	-0.00925
CATTGTCA	-0.199
ATAGGGTC	-0.137
AGGTAGAC	-0.0678
CCAACCCC	-0.121
ACCATTAC	0.0302
CAACGTGG	-0.231
TGCACCCA	0.0334

Sequence	PBM E-score
GTTAGCTA	-0.175
CCGGAATA	0.357
GTTAAGCA	0.124
GCAGACAC	-0.0725
ATCAAATG	0.14
AGAATGCA	0.06
CGGCATGC	0.158
ACTAGGGG	-0.0734
TGCCTACA	-0.0234
GTGGTTAA	-0.165
GCGGGGAC	0.163
AGGTATAA	0.0317
CGTCGTGC	-0.145
AATGTAAA	0.0271
ATCCACAC	-0.162
TACTTCCA	0.053
CGTCGGTC	0.34
AAGTGTCG	-0.0516
ACTAATCG	0.209
GAGCACGA	-0.0347
CGCGCTAG	0.0264
GATGATCA	-0.0713
GCCATACA	-0.156
AGCTAGAT	-0.213
ATAGGAGA	-0.382

Sequence	PBM E-score
GGCCGTAA	0.377
CCCCTTGA	-0.109
TAGGTTCA	0.0751
AAGCAGGA	-0.00208
CCATATGG	-0.252
GGCCTTAA	0.255
TCTGCCAA	-0.294
TACCGGTA	0.441
GGGCTGTA	-0.0531
AGACGATA	-0.0095
AATGCGGA	0.256
CTGAGTCA	-0.202
AACCAAGT	-0.152
ATGTGACC	-0.0399
ATGAGAGA	-0.16
CCCCCAGC	-0.206
CATACCGA	0.176
AGACCTGC	-0.284
AAGACTTA	-0.257
